In the supplement of paper PMC4967469:
Lines with a small IC50 respond at low doses; where the fit passes the top or lowest dose, that dose stands as a limit. AUC sums up the same curve from the lowest dose to the 256-fold higher top dose; values near 1 show little effect. The top dose, if marked as inferred, was calculated from the reported fits. For some assays here: Drugs with an entry number were screened twice under separate entries, and the two screens often disagree.

Experiments:
[1] = compound: NC(=O)c1ncn([C@@H]2O[C@H](CO)[C@@H](O)[C@H]2O)c1N [AICAR]; experiment: Viability of human cancer cell lines after 72 h of drug (GDSC screen); conditions: top dose 2000 µM; top dose inferred
Procedure: (§1)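 Human cancer cell lines in 384-well plates, medium with 10% serum, drug for 72 h over a 256-fold dose range (nine 2-fold or five 4-fold steps up to the top dose). Adherent lines were fixed and stained with the nucleic acid dye Syto60, suspension lines read with resazurin; signal relative to control wells, capped at 0 and 100%. One two-parameter sigmoid per drug and line, fitted in a mixed model over all curves with the slope shared within a line.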

[2] = compound: O=c1[nH]c2ccccc2n1C1CCN(Cc2ccc(-c3[nH]c4cc5ncnc5cc4nc3-c3ccccc3)cc2)CC1 [AKT inhibitor VIII]; experiment: as above; conditions: top dose inferred
Procedure: as §1

[3] = top dose 10.24 µM, screen: GDSC drug entry 228
[4] = top dose 2.56 µM, screen: GDSC drug entry 171

Cell Line | AUC [1] | IC50 [1] [µM] | AUC [2, 3] | IC50 [2, 3] [µM] | AUC [2, 4] | IC50 [2, 4] [µM]
UWB1.289 (ovary, adherent) | 0.918 | > 2000 | 0.938 | > 10.2 |  | 
VAL (B-cell lymphoma, suspension) | 0.873 | 1940 | 0.813 | 5.57 | 0.96 | > 2.56
VMRC-MELG (melanoma, adherent) | 0.971 | > 2000 | 0.988 | > 10.2 | 0.969 | > 2.56
VMRC-RCW (kidney, adherent) | 0.983 | > 2000 | 0.918 | > 10.2 | 0.976 | > 2.56
VMRC-RCZ (kidney, adherent) | 0.91 | > 2000 | 0.804 | 6.14 | 0.835 | 2.09
WIL2-NS (lymphoid neoplasm, suspension) | 0.954 | > 2000 | 0.607 | 1.19 | 0.981 | > 2.56
WM35 (melanoma, adherent) | 0.651 | 328 | 0.871 | 9.74 | 0.954 | > 2.56
WM278 (melanoma, adherent) | 0.939 | > 2000 | 0.919 | > 10.2 | 0.984 | > 2.56
WM793B (melanoma, adherent) | 0.874 | > 2000 | 0.878 | > 10.2 | 0.933 | > 2.56
WM1552C (melanoma, adherent) | 0.622 | 271 | 0.806 | 5.24 | 0.907 | > 2.56
WM-115 (melanoma, adherent) | 0.883 | > 2000 | 0.802 | 6.44 | 0.978 | > 2.56
WSU-DLCL2 (B-cell lymphoma, suspension) | 0.934 | > 2000 | 0.837 | 5.27 | 0.993 | > 2.56
WSU-NHL (lymphoid neoplasm, suspension) | 0.822 | 989 | 0.93 | > 10.2 | 0.977 | > 2.56
YAPC (pancreas, adherent) | 0.949 | > 2000 | 0.949 | > 10.2 | 0.97 | > 2.56
YH-13 (glioma, adherent) | 0.961 | > 2000 | 0.892 | > 10.2 |  | 
YKG-1 (glioma, adherent) | 0.746 | 642 | 0.927 | > 10.2 | 0.833 | 1.69
YT (lymphoid neoplasm, suspension) | 0.988 | > 2000 | 0.658 | 1.63 | 0.95 | > 2.56
huH-1 (liver, adherent) | 0.857 | > 2000 | 0.984 | > 10.2 | 0.972 | > 2.56
no-10 (glioma, adherent) | 0.921 | > 2000 | 0.955 | > 10.2 | 0.971 | > 2.56
no-11 (glioma, adherent) | 0.934 | > 2000 | 0.918 | > 10.2 | 0.939 | > 2.56
